Measurements published in the supplement of paper PMC3334620.
Whole data set: some 33,000 sequences, median “E-score (-0.5 to 0.5)” near -0.054, cut for the highest 2% near 0.39. The list shows a part of the results.

Target: Ylr278c (UniProt Q05854)
Assay: PBM E-score (8-mer binding enrichment) (E-score (-0.5 to 0.5)); higher = stronger / more preferred TF binding; most listed sequences are background and not binding sites
Details: protein concentration: 200 nM; construct: GST-DNA-binding domain
Procedure: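 Universal 'all 10-mer' protein binding microarrays (Agilent AMADID 015681) probed with GST-tagged S. cerevisiae TFs (full-length or DBD) made by in vitro transcription/translation (PURExpress), about 100-200 nM. Bound TF was detected with fluorescent anti-GST. Each ungapped 8-mer (which stands for itself and its reverse complement) is scored by the PBM enrichment score (E-score), a modified Wilcoxon-Mann-Whitney statistic from -0.5 to +0.5, computed with the Universal PBM Analysis Suite. Scale: above 0.35 generally sequence-specific binding.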

| Sequence | PBM E-score |
| --- | --- |
| GTTAAAAA | -0.11 |
| ATCAATTC | 0.015 |
| ACCAGCCT | -0.188 |
| GCTTGTCC | 0.112 |
| CCAGCGAG | -0.121 |
| CTTGGAAA | -0.0475 |
| CACGACCA | -0.274 |
| CTACCTGC | 0.151 |
| ATCCGAGA | 0.299 |
| AGGTATAG | -0.185 |
| GCGTAGGA | 0.0939 |
| CTGAACAC | -0.0895 |
| AGCCATCC | -0.0598 |
| AGCTGGGA | -0.099 |
| CACAGCCA | -0.209 |
| AGGCCGTC | 0.0267 |
| GAGTACCC | 0.0132 |
| CGCCCAGC | 0.0441 |
| GCAACGCC | 0.0378 |
| ATATTAAG | -0.077 |
| AAAACTTT | -0.088 |
| AACGGCCA | 0.131 |
| CACTGGTC | -0.265 |
| AAATGACC | -0.00492 |
| CGGTTACC | 0.149 |

| Sequence | PBM E-score |
| --- | --- |
| GCGTCAAA | -0.11 |
| ACACGCGT | 0.0184 |
| AGTTGCTC | -0.108 |
| CGAAACGC | 0.0471 |
| AGTAGCGG | 0.217 |
| GAATGCCA | -0.0408 |
| GGCCTAAA | -0.0667 |
| ACAGACAG | -0.0656 |
| ACCAGTGG | -0.197 |
| ACTGTCGA | -0.202 |
| GACGTCGA | -0.089 |
| ATCCTTTC | -0.137 |
| GGCGGGGA | 0.315 |
| CCGATCTA | 0.219 |
| ACAGTGGT | -0.308 |
| TCGCGCGA | 0.187 |
| AGAACTAG | -0.232 |
| ATTGATCC | 0.282 |
| TAACGTTA | 0.0259 |
| CGAATACC | 0.155 |
| AGATCCAA | -0.0826 |
| CAAGTGCG | 0.0989 |
| CGCAGAAG | -0.0179 |
| ATACCGGA | 0.405 |
| AGGCCGGG | 0.258 |

| Sequence | PBM E-score |
| --- | --- |
| AGATCTCC | 0.255 |
| GGGTCGAA | -0.103 |
| GCCTTGTA | -0.174 |
| CTATCGCA | -0.0611 |
| ATGTGACA | -0.204 |
| CGTAGGTA | -0.0121 |
| CCCAATCA | -0.0999 |
| AAACTCAC | -0.0848 |
| ACGACTGC | -0.202 |
| GAGCCACA | -0.0707 |
| CGCCAAAG | -0.0321 |
| ATAGATTG | 0.0539 |
| CTGTGCTA | -0.0973 |
| TTGCCAAA | -0.0917 |
| AACCCTGA | -0.0547 |
| TACAAACA | -0.107 |
| CATGCCTA | -0.261 |
| CCCTCGCC | -0.246 |
| ATCGATTG | -0.029 |
| AACGCCAG | 0.017 |
| GCAAGGGC | -0.211 |
| CCGGCACC | 0.374 |
| CTTATGCC | 0.0545 |
| CACGCGCG | 0.119 |
| CATCCCGG | 0.342 |

| Sequence | PBM E-score |
| --- | --- |
| ACCTGTAG | -0.144 |
| GTGGCAGA | -0.213 |
| ATGTGCCG | 0.132 |
| ACAAGAAG | 0.08 |
| ATAAGAGG | 0.107 |
| GAACATGA | -0.0476 |
| CCGCTTAC | 0.0207 |
| CGAAATTA | 0.136 |
| CCGTGACA | 0.238 |
| AGGCTTTG | -0.154 |
| CGGGTGGC | 0.148 |
| GATCTGTA | 0.0224 |
| AGGTCATG | -0.141 |
| GTATCTGA | -0.143 |
| AGGTCAGA | -0.108 |
| ATGCTCGG | 0.169 |
| TTAGTCAA | -0.189 |
| CTCCCGGC | 0.356 |
| AAACGTCT | -0.269 |
| CGTTGTCA | -0.0949 |
| AAGTGGAT | -0.0978 |
| CCGAGGCC | 0.245 |
| CAACTGTC | -0.136 |
| ATACTTCC | 0.109 |
| GACTGGGC | -0.179 |

| Sequence | PBM E-score |
| --- | --- |
| GAATACTC | 0.0192 |
| ATACGAGA | -0.327 |
| ACGTGGGG | -0.0524 |
| CGATCTGC | 0.19 |
| GCGAGGTA | -0.105 |
| GTCGATGA | -0.0803 |
| AGTCAGCA | -0.285 |
| ACAGGGGA | -0.2 |
| CCTTGTCC | 0.131 |
| TACGTGGA | 0.143 |
| CGTTGAAG | -0.201 |
| CTCTGCTC | -0.114 |
| AGCTTAAT | 0.0164 |
| CCTCTAGA | -0.203 |
| ATACTTGC | -0.253 |
| GCGAGTAC | 0.00812 |
| AAATGAAG | -0.0897 |
| AACGCGCA | -0.0645 |
| ACTGCTGA | -0.237 |
| ACAAACCA | -0.244 |
| ATACCCTG | -0.08 |
| AGAATAAG | -0.0356 |
| CCTGTAGA | -0.111 |
| GCCATCTA | -0.111 |
| AGATCAAA | 0.0214 |

| Sequence | PBM E-score |
| --- | --- |
| CTAAGCCA | -0.24 |
| CTGAGTAA | -0.228 |
| ATAATAAC | -0.0184 |
| ACTCCACG | 0.0682 |
| AGTCCCAG | -0.0903 |
| AAAAAATT | 0.0162 |
| CCGTTAAC | 0.178 |
| GGGCCGCA | 0.257 |
| AGTTGGAC | -0.146 |
| CTCCTTGA | -0.11 |
| ACCAAGCT | -0.287 |
| CATGTTGG | -0.227 |
| GGCAATCA | 0.122 |
| CACCAGGG | -0.298 |
| ACGAGTAT | -0.192 |
| GCGGAGGA | 0.406 |
| AAACGGAA | 0.306 |
| ACGCGTGG | 0.0294 |
| CCAGACGC | -0.184 |
| CAACTAAC | 0.0622 |
| CCTATGGA | -0.124 |
| CCTGGTGC | -0.136 |
| AACCTAAC | 0.056 |
| AAGGTGGG | -0.161 |
| TGCCCAAA | -0.203 |

| Sequence | PBM E-score |
| --- | --- |
| CCAGATAA | -0.0845 |
| GGCATTTA | 0.0632 |
| ATGTGTAC | -0.196 |
| AGCACTAC | -0.291 |
| ATGAGCTG | -0.0713 |
| ACCCTGCG | -0.0187 |
| AAGTGCCT | -0.328 |
| CAACCGGC | 0.27 |
| ATTAGCTA | -0.108 |
| ATTCGCCC | 0.156 |
| ATAGCGCC | 0.0683 |
| CAAGCAGA | -0.121 |
| AGTACGAG | 0.104 |
| AACGGCGT | 0.123 |
| CGACTTAG | -0.168 |
| GCTAACTA | 0.0503 |
| GCCCCTTA | -0.0129 |
| ACTCTTCG | -0.0141 |
| GCCCTAAA | -0.115 |
| ACCAAACG | -0.147 |
| GAGTTTAC | 0.122 |
| ACTCCAGT | -0.00604 |
| CTACTGTC | -0.123 |
| ACTAACAT | -0.105 |
| GAGGTCCC | 0.0277 |

| Sequence | PBM E-score |
| --- | --- |
| AATTATCG | 0.104 |
| TGCGCACA | 0.143 |
| TACTAGTA | -0.138 |
| ATATTACC | -0.0424 |
| GAGTTCGA | -0.0113 |
| AATCGGGG | 0.338 |
| AGAAGAAA | -0.0189 |
| AATATAGC | -0.164 |
| CGCGGGGC | 0.302 |
| GCTAGCAA | -0.0145 |
| CAGCCGCC | 0.283 |
| ACTAGAGC | -0.128 |
| ACATAGGA | -0.154 |
| GCTCTCGA | -0.201 |
| CCGACTCA | 0.199 |
| CAAGAGTA | -0.128 |
| GAGACCAC | -0.211 |
| CGATCGGA | 0.44 |
| AGTTTGTA | 0.0205 |
| CGATTACG | -0.0311 |
| CGTATTCA | -0.0647 |
| ATATCGAC | 0.0774 |
| ATACCAGC | -0.104 |
| AGGTTGAT | -0.185 |
| ATTTGAAG | 0.102 |

| Sequence | PBM E-score |
| --- | --- |
| GACCTACC | 0.00069 |
| TATAGAGA | -0.354 |
| CGCGACTC | 0.104 |
| CGTGACAC | 0.0891 |
| AGCAGATG | -0.335 |
| CCATTTCA | -0.127 |
| AATCGAAA | -0.14 |
| CTCATGTA | -0.0184 |
| GCAACGAC | -0.0348 |
| AAAGCGGG | 0.112 |
| CCGCAAAA | 0.242 |
| ATTAGACC | -0.134 |
| GTGGGAAA | -0.0315 |
| CAACGACC | -0.0111 |
| AGGACCCC | 0.06 |
| CGGGCCCA | 0.091 |
| CCGATTCA | 0.0742 |
| CCGGGTAC | 0.265 |
| CTCACCCA | -0.0261 |
